Measurements taken from publication PMC4336329 (PLoS ONE, 2015).
In all, about 310,000 compounds went through this assay and about 2,200 (0.71%) showed an effect of 50% or more. Effects have a minus sign here. The list shows a part of the results.

target: human ether-à-go-go-related gene (hERG) potassium channel (human, UniProt Q12809); assay: primary screen, population patch clamp on CHO cells stably expressing hERG
Sequence (Q12809 whole entry, looked up): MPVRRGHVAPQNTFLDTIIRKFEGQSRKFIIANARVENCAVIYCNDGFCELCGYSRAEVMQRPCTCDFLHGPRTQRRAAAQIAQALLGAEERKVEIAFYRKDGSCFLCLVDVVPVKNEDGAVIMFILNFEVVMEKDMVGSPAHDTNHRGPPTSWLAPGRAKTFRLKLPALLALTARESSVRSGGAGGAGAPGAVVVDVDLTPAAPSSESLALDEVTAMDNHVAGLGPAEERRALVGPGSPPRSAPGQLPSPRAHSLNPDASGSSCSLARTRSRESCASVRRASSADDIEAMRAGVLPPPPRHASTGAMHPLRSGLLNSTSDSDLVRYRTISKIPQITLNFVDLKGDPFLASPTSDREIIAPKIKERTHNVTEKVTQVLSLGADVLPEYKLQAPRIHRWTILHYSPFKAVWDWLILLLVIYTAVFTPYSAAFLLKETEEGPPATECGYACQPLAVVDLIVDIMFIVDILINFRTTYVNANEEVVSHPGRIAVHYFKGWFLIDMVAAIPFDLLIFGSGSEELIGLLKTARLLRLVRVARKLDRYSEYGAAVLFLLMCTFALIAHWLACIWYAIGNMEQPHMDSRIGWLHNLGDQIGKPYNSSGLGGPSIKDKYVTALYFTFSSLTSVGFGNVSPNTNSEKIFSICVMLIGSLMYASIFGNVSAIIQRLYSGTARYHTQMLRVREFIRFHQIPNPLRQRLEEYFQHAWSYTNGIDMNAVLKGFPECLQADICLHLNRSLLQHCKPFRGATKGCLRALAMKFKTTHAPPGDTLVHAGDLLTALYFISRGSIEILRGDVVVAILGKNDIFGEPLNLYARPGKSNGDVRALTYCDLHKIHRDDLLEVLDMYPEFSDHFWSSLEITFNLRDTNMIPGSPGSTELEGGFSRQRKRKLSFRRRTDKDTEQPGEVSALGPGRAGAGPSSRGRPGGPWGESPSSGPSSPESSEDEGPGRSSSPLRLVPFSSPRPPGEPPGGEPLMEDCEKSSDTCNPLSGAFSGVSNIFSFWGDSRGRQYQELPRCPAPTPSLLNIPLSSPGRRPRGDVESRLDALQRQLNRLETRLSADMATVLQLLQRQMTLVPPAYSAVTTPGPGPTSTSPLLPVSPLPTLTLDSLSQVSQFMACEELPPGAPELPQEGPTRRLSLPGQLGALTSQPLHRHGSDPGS

Row | Structure (SMILES) | hERG current change (%, negative = inhibition) at 1uM [%]
1 | CCOC(=O)Cn1c(S(=O)(=O)Cc2ccccc2Cl)nc(-c2ccccc2)c1-c1ccccc1 | 7.23
2 | CC(C)(C)Nc1nc2ccc([N+](=O)[O-])cc2o1 | 3.84
3 | O=C(COC(=O)c1cccnc1Cl)NCc1cccs1 | 10.9
4 | O=C(Cc1ccc(Cl)cc1)Nc1nc2ccccc2[nH]1 | -14.5
5 | O=C(Cc1ccccc1)NNC1CC(=O)N(c2ccc(Br)cc2)C1=O (stereo not drawn) | 20.7
6 | CCOc1ccc(N=C(C)c2ccccc2O)cc1 | 10.3
7 | Cc1cc(C(=O)O)ccc1[N+](=O)[O-] | 8.73
8 | CCCOc1ccc(N2C(=O)CC(N(CCc3ccc(OC)cc3)C(=O)c3cccc(F)c3)C2=O)cc1 (stereo not drawn) | 5.86
9 | COc1ccc(CC(=O)Nc2ccc3c(c2)C(=O)N(CCC(=O)O)C3=O)cc1 | 14.7
10 | O=C(NCc1ccccn1)c1ccc(OC2CCN(Cc3cccs3)CC2)cc1 | 20.4
11 | COc1ccc2ccccc2c1/C=N/NC(=O)c1sc(N)c(C#N)c1C | 9.38
12 | O=C(O)CCCn1cc(NC(=O)COc2cccc(Cl)c2)cn1 | -12.7
13 | COc1cccc(CNC(=S)Nc2ccc(Cl)cc2C)c1 | 7.96
14 | COc1ccc(OC)c(C(=O)c2ccc(C(=O)N3CCCCC3)cc2)c1 | 0.398
15 | Cn1c(Cn2c(=O)sc3ccccc32)nnc1SCC(=O)Nc1ccccc1 | 0.718
16 | Cc1ccc(OCCSc2nnc(-c3ccncc3)n2C)cc1 | 7.39
17 | Cc1ccc(C(=O)NC(=S)Nc2ccc(NC(=O)c3cccs3)cc2)cc1[N+](=O)[O-] | 8.27
18 | CC(C)CN(CC(C)C)C(=O)COn1nnc2ccc(S(=O)(=O)N3CCOCC3)cc21 | -5.2
19 | CN(C)c1ccc(NC(=O)COC(=O)CCC(=O)c2ccc(F)cc2)cc1 | -10.4
20 | COc1ccc(CN(C)C(=S)Nc2ccc(OC(F)F)cc2)cc1 | -12.3
21 | CCOc1ccc(NC(=O)NC2CCCCCCC2)cc1 | 13.1
22 | COc1ccc(-n2c(SCC(=O)N3CCOCC3)nc3ccccc3c2=O)cc1 | 9.44

Row | Structure (SMILES) | hERG current change (%, negative = inhibition) at 1uM [%]
23 | CN(C)c1ccc(C(=O)OCC(=O)Nc2ccc(N3CCOCC3)cc2)cc1 | 10.6
24 | COc1cc(/C=C2\C(=N)N3N=C(C(C)C)SC3=NC2=O)ccc1OCCOc1ccc(NC(C)=O)cc1 | 12.1
25 | Cc1ccc(NC2Sc3ccccc3NC2=O)cc1Cl (stereo not drawn) | 12.9
26 | CCOc1cc(/C=N/NC(=O)c2cc(-c3cccc(OC)c3)nc3ccccc23)ccc1O | 12.1
27 | COC(=O)C1=C(c2c(C)noc2C)C[C@@H]2CC[C@H]1N2C(=O)NCCO | 14.8
28 | CN(Cc1cc2ccccc2[nH]c1=O)C(=O)C1CCCCC1 | 4.83
29 | COc1cc(CN2CCC(Cc3ccccc3)CC2)c([N+](=O)[O-])cc1OC | 4.65
30 | CCC(C)(C)NC(=O)C(C(C)C)N(CC1CCCO1)C(=O)CNS(=O)(=O)c1ccc(F)cc1 (stereo not drawn) | 6.78
31 | CCCc1nc(SCC(=O)N2CCc3ccccc32)c2c(C)c(C)sc2n1 | 14.5
32 | Cc1nnc(SCC(=O)Nc2nccs2)n(N)c1=O | 19.7
33 | N/C(=N\OS(=O)(=O)c1ccc2ccccc2c1)c1cccnc1 | 11.9
34 | CCN(CC(=O)NC1CCS(=O)(=O)C1)S(=O)(=O)c1ccccc1Cl (stereo not drawn) | 7.76
35 | CC(=O)N1CC=CC1(CC(C)C)C(=O)NCCN1CCOCC1 (stereo not drawn) | 16.8
36 | Cc1cccc(C(=O)OCC(=O)N(CC(C)C)c2c(N)n(Cc3ccccc3)c(=O)[nH]c2=O)c1O | 17.1
37 | COc1ccc(/C(O)=C/C(=O)C(=O)Nc2c(C)n(C)n(-c3ccccc3)c2=O)cc1 | 19.9
38 | CCc1noc(C)c1C(=O)Nc1cccc(S(=O)(=O)N2CCCCCC2)c1 | -3.12
39 | Cc1cccc(Cc2c(C)nc3c(C(=O)N4CCN(Cc5ccc6c(c5)OCO6)CC4)cnn3c2C)c1 | 0.189
40 | Nc1ncnc2nc(SCC(=O)Nc3cccc(C(F)(F)F)c3)[nH]c12 | 7.71
41 | CCOc1ccc(C(=O)NC(=S)Nc2ccc(N3CCOCC3)c(Cl)c2)cc1[N+](=O)[O-] | 12.8
42 | N/C(=N\OC(=O)Cc1ccccc1)c1ccccc1Cl | 10.6
43 | FC(F)Oc1ccc(/C=N/N2CCCCC2)c(OC(F)F)c1 | 3.83
44 | Cc1nc(-c2cccc(NC(=O)COc3ccc(Cl)cc3)c2)cs1 | 1.28

Row | Structure (SMILES) | hERG current change (%, negative = inhibition) at 1uM [%]
45 | O=C(COC(=O)c1nc(Cl)ccc1Cl)NC1CCS(=O)(=O)C1 (stereo not drawn) | 10.9
46 | Cc1ccc(C(=O)C(OC(=O)CNS(=O)(=O)c2ccccc2)c2ccccc2)cc1 (stereo not drawn) | 13.4
47 | NCCCC[C@@H](C(=O)N1CCNCC1)n1cc(CN)nn1 | 12.2
48 | COc1ccc(C2(C#N)CC[N+](C)(C)CC2)cc1.[Br-] | 2.71
49 | COCCn1c(N2CCN(c3ccc(OC)cc3)CC2)nc2c1c(=O)n(C)c(=O)n2C | 1.59
50 | CCOCCCNC(=S)Nc1cc(OCC)c(NC(=O)c2ccco2)cc1OCC | 7.7
51 | CC(C)(C)CC(C)(C)NCC(O)COc1ccc2c(c1)CCC2.Cl (stereo not drawn) | 8.51
52 | CCOC(=O)Cn1c(CN2CCN(c3cccc(Cl)c3)CC2)nc2c1c(=O)[nH]c(=O)n2C | 0.68
53 | O=C(Cn1cnc([N+](=O)[O-])c1)c1ccc(F)cc1 | 10.6
54 | CCCC[n+]1ccn(C2=C([O-])c3ccccc3C(=O)/C2=N\S(=O)(=O)c2ccc(Cl)cc2)c1 | -5.25
55 | CC(c1cccs1)N(Cc1ccco1)C(=O)Nc1ccc(Cl)c(Cl)c1 (stereo not drawn) | 0.717
56 | CCCCOC(=O)Nc1nnc(C(C)C)s1 | 11.5
57 | CCC(=O)NC(NC(=O)CC)C(Cl)Cl | -2.92
58 | CC(NC(=O)c1cc2ccccc2oc1=O)c1ccccc1 (stereo not drawn) | 3.46
59 | CCCC1(c2ccccc2)NC(=O)N(CC(=O)NCC2COc3ccccc3O2)C1=O (stereo not drawn) | 3.79
60 | CC1CCC(NC(=O)CCCn2sc3ccccc3c2=O)CC1 (stereo not drawn) | 17
61 | O=C(NS(=O)(=O)c1ccccc1[N+](=O)[O-])c1ccccc1 | 13.2
62 | Cc1cc(C)c(NC(=O)C(C)OC(=O)c2cc(Br)c(Br)s2)c(C)c1 (stereo not drawn) | 11
63 | Cc1nn(-c2ccccc2)c(C)c1/C=N/n1c(-c2ccc(C(C)(C)C)cc2)n[nH]c1=S | 10.9
64 | COc1ccc(NC(=O)C2CCCN(C(=O)c3ccc(Cl)cc3)C2)cc1Cl (stereo not drawn) | 9.25
65 | O=C(CNS(=O)(=O)c1ccc(Cl)cc1)N/N=C/c1ccco1 | 14.6
66 | CCC1CCCCN1CCNS(=O)(=O)c1ccc2c(c1)CCN2C(C)=O (stereo not drawn) | -5.51

Row | Structure (SMILES) | hERG current change (%, negative = inhibition) at 1uM [%]
67 | Cc1ccc(CS(=O)Cc2ccc(C(=O)NCCc3ccccc3)o2)cc1 (stereo not drawn) | 2.62
68 | Cc1ccc(C(=O)Nc2nnc(S(=O)(=O)N3CCN(c4ccc(F)cc4)CC3)s2)cc1 | 6.33
69 | COC(=O)c1c(NC(=O)c2cccc(S(=O)(=O)N3CCN(C)CC3)c2)sc(C)c1C | 16.3
70 | CC(NC(=O)Cn1cccc1C(=O)c1ccccc1)c1ccccc1 (stereo not drawn) | 18.7
71 | CCC1(C)Cc2[nH]c(=O)c(C#N)cc2CO1 (stereo not drawn) | 11.5
72 | CCn1c(=S)[nH]c2cc(C(=O)OC)ccc2c1=O | 8.38
73 | O=C(Nc1ccccc1[N+](=O)[O-])c1cc(S(=O)(=O)Nc2ccccn2)ccc1Cl | 12.4
74 | Cc1nc(N)nc(Cl)c1Cc1ccc(Cl)cc1 | 16.2
75 | NS(=O)(=O)c1ccc(CCNc2nc(C(F)(F)F)nc3ccccc23)cc1 | 14.2
76 | CC(=O)N/C(=C\c1ccccc1)C(=O)OCCCOC(=O)/C(=C/c1ccccc1)NC(C)=O | 12.5
77 | C/C(=N\O)c1ccc2c3ccccc3n(C)c2c1 | 19.8
78 | Cc1csc2c(SCC(=O)NNS(=O)(=O)c3cccc(C(F)(F)F)c3)ncnc12 | 19
79 | Cc1cc(=O)[nH]c(SCC(=O)Nc2ccc(C)c(S(=O)(=O)N3CCCCC3)c2)n1 | 6.71
80 | Cc1cc(NC(=O)CCC(=O)N(CC2CCCO2)C(C(=O)NC2CCCC2)c2ccccc2C)no1 (stereo not drawn) | 9.52
81 | O=C(CSc1ccccc1Cl)c1ccco1 | 0.27
82 | COc1ccc(C(=O)C2CCCN(C(=O)c3ccoc3C)C2)cc1F (stereo not drawn) | 7.19
83 | Cl.NCCCC[C@H](N)c1nnc([C@H](CCC(=O)O)NC(=O)C2CCNCC2)o1 | 9.55
84 | C/C=C/C(=O)OCC(=O)Nc1cc(OC)c([N+](=O)[O-])cc1C | 6.58
85 | CCOC(=O)c1cnc2c(-c3ccccc3)cnn2c1C | 5.5
86 | CC(NCC1COc2ccccc2O1)C1COc2ccccc2O1 (stereo not drawn) | 14.1
87 | O=C(COc1ncnc2ccccc12)c1ccc(Cl)cc1 | 19.3
